# Measurements taken from PubChem BioAssay AID1347165 (National Center for Advancing Translational Sciences (NCATS), 2019).
# In all, about 220,000 compounds went through this assay and about 5,700 (2.6%) were called active. Inconclusive means that the source gave no clear call. Such entries were picked first, then a sample of the others. Calls come from the whole dose curve; as a rule, active = well fitted inhibition curve with a large enough effect; inconclusive = small, poorly fitted or top-dose-only effect; inactive = no such curve, though single readings can be large or run the other way. A potency beside an inconclusive call is a rough fit, not a confirmed value.
# Target: Lysine-specific demethylase 5B (Homo sapiens) (UniProt Q9UGL1)
# UniProt Q9UGL1, sequence (Q9UGL1 whole entry, looked up): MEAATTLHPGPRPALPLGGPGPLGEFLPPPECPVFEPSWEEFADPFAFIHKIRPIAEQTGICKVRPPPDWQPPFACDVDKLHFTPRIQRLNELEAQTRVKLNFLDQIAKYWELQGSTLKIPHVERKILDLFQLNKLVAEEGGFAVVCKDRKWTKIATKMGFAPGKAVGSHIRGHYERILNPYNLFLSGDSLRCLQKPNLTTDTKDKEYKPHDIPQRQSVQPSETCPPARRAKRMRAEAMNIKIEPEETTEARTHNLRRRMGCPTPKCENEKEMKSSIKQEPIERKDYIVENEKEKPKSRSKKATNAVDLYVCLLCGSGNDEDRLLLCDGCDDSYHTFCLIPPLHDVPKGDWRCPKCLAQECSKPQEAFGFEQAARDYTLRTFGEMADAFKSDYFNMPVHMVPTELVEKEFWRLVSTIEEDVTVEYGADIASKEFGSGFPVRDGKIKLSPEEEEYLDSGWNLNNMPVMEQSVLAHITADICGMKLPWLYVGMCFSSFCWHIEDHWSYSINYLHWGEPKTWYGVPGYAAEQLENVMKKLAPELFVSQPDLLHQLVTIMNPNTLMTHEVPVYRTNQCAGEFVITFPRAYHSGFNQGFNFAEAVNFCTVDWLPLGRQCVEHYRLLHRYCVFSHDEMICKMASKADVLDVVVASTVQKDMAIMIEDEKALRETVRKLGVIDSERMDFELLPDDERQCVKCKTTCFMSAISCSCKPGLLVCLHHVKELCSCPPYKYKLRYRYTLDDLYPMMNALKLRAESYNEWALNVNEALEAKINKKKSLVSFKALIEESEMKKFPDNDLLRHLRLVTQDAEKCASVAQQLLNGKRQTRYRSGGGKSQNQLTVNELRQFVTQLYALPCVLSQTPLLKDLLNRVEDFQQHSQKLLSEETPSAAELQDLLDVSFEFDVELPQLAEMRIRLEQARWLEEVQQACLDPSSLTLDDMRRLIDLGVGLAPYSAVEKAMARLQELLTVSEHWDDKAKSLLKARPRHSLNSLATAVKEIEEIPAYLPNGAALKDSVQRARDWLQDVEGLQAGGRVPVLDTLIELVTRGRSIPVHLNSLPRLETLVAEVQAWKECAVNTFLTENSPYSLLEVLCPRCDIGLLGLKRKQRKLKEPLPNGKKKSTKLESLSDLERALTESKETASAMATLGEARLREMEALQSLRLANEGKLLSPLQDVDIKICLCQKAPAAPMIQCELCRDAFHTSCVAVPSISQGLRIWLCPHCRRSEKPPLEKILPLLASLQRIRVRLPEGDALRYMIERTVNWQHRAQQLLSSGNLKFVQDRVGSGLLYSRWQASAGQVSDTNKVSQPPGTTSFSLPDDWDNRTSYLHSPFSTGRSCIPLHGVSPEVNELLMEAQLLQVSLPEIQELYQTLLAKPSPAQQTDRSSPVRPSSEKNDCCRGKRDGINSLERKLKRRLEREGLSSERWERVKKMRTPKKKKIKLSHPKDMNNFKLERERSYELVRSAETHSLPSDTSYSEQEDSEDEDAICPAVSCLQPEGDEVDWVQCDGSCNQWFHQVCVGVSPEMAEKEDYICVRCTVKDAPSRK
# Test: Primary screen for KDM5B Histone Demethylases FDH-coupled qHTS; note: nearly all actives have a fitted effect of over 70% in size; for activity change, negative = inhibition: 0% is about no effect
# Conditions: FDH-coupled NADH fluorescence (FDH is formaldehyde dehydrogenase); activity change, negative = inhibition: at 57.7 µM (top of the series) unless noted
# How it was run: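 KDM5BΔAP (200 nM final) in 50 mM HEPES pH 7.5, 0.01% Tween-20 was preincubated 10 min at RT with compound over a concentration range. Substrate mix (H3K4me3 12.5 µM, α-KG 25 µM, Fe²⁺, ascorbate, NAD⁺, FDH) was added, and NADH fluorescence change over 30 min gave dose-response curves.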
# Potency is the fitted concentration of half-maximal effect; tags give direction and shape of the fitted curve.
SMILES,"activity change, negative = inhibition",Potency
Cc1cc(F)cc(CN2CCc3nc(C(=O)NCC4CC4)oc3CC2)c1,inactive: -28% [at 86.2 µM],–
O=C(Nc1ccc2oc(-c3ccncc3)nc2c1)c1cccc2ccccc12,–,"inconclusive: 39.8 µM [inhibitor, single point]"
Cc1ccc(-c2cc(N3CCC(CNC(=O)c4ccc[nH]4)CC3)n[nH]2)cc1,–,"inconclusive: 15.8 µM [inhibitor, single point]"
COc1ccc(Nc2ccnc(N3CC4CCC(C3)N4CC(F)(F)F)n2)cc1,–,"inconclusive: 14.1 µM [inhibitor, full curve, poor fit]"
COc1ccc(CCNC(=O)c2ccc(-n3c(C)cc4c3CCC(C)C4)cc2)cc1OC (stereo not drawn),–,"inconclusive: 14.1 µM [inhibitor, partial curve, poor fit]"
Cc1cc(C)c(OCC(=O)N(Cc2ccc(N(C)C)cc2)Cc2ccco2)c(C)c1,–,"inconclusive: 2.51 µM [inhibitor, full curve, poor fit]"
COc1cccc(CN2CCc3c(cc(C(=O)NCc4cccs4)n3C)C2)c1,–,"inconclusive: 20 µM [inhibitor, partial curve, poor fit]"
CNC(=O)c1cc(-c2cccc(OC)c2OC)cc2c1OCCN2Cc1cccnc1,–,active: 31.6 µM
CC/C=C(/C)C(=O)N1CCCC(C(=O)NCC2CC2)C1 (stereo not drawn),inactive: 17.6%,–
CCn1ncc(N2CCC(NC(=O)CCC(C)C)CC2)cc1=O,inactive: 17.3%,–
COC(C)(C)C#CC(=O)c1cccc2ccccc12,–,"inconclusive: 39.8 µM [inhibitor, single point]"
O=C(Nc1ccc(Cl)cc1)N1Cc2[nH]cnc2C[C@H]1c1nc(-c2ccc3ccccc3c2)no1,–,"inconclusive: 25.1 µM [inhibitor, single point]"
O=C(CNC(=O)c1ccc(F)cc1)OCc1cc(=O)n2ccsc2n1,inactive: -22.7%,–
Cc1c(O)ccc2c(CN3CCN(CCO)CC3)cc(=O)oc12,–,"inconclusive: 28.2 µM [inhibitor, partial curve, poor fit]"
O=C1NCc2ccccc2CC12CCCCN2Cc1cnc2ccccc2c1 (stereo not drawn),–,"inconclusive: 56.2 µM [inhibitor, partial curve, poor fit]"
CCN(Cc1cccs1)C(=O)c1ccc(C#N)cc1,inactive: 8.61%,–
COc1ccc(C(=O)Nc2ccc3oc(-c4cccc5c(Br)cccc45)nc3c2)cc1,–,"inconclusive: 28.2 µM [inhibitor, partial curve, poor fit]"
Cc1cc(C2CC(C(=O)NCc3ccco3)CN(C(=O)NC(C)C)C2)ccc1F (stereo not drawn),–,"inconclusive: 25.1 µM [inhibitor, partial curve, poor fit]"
COc1cccc(-c2ncc3c(n2)OCCN(Cc2ccccc2)C3=O)c1,–,active: 35.5 µM
COCCOc1ccc(-c2noc([C@@H]3CCCN3Cc3cccnc3)n2)cn1,inactive: -24.5% [at 86.2 µM],–
CCc1cc(=O)oc2cc(C)cc(OCC(=O)O)c12,–,"inconclusive: 14.1 µM [inhibitor, partial curve, poor fit]"
CCOc1ccc(C(=O)NC2CCN(c3cc(-c4ccc(OC)cc4)[nH]n3)C2)cc1 (stereo not drawn),–,"inconclusive: 7.94 µM [inhibitor, partial curve]"

SMILES,"activity change, negative = inhibition",Potency
Cc1c2c(nc3ccccc13)-c1ccccc1CC2,–,"inconclusive: 39.8 µM [inhibitor, single point]"
Fc1cccc(Cl)c1/C=N/Nc1c(Cl)cc(Cl)cc1Cl,–,"inconclusive: 10 µM [inhibitor, partial curve, poor fit]"
Cc1cc(Nc2cccc([N+](=O)[O-])c2)c2cc(Cl)ccc2n1,inactive: 14.6%,–
COCc1nc2nc(-c3ccccc3)c(Nc3ccc(F)c(OC)c3)cc2n1C,–,"inconclusive: 56.2 µM [inhibitor, single point]"
CCn1cnc2c1c(=O)n(CC(=O)c1cc(C)n(CC3CCCO3)c1C)c(=O)n2Cc1ccccc1 (stereo not drawn),inactive: 10.6%,–
CC(C)[C@@H](C(=O)Nc1ccc(N(C)C)cc1)n1nnc2ccccc2c1=O,inactive: 23.5%,–
COc1ccc(Br)cc1Cn1nnc(C(=O)Nc2cccc(SC)c2)c1N,–,"inconclusive: 35.5 µM [inhibitor, single point]"
COc1ccc(-c2cc(N3CCCN(C(=O)c4ccc(OC)cc4C)CC3)n[nH]2)cc1,inactive: -18.9%,–
O=C(CSc1nnc(-c2cccc(Cl)c2)o1)Nc1ccc2c(c1)OC1(CCCCC1)O2,inactive: 1.28%,–
O=C(CN1C(=O)COc2ccccc21)Nc1cc(Cl)ccc1Oc1ccccc1,inactive: 15.5%,–
Cc1ccc(C)c(CN2CCC(CNC(=O)c3occc3C)C2)c1 (stereo not drawn),–,"inconclusive: 6.31 µM [inhibitor, single point]"
CCN1c2cc(C(=O)Nc3ccc(C(N)=O)cc3)ccc2C(=O)N2CCCCCC21 (stereo not drawn),–,"inconclusive: 28.2 µM [inhibitor, partial curve, poor fit]"
O=C(CCC[C@H]1NC[C@@H]2C[C@H]1CN(Cc1ccccc1)C2)NCCc1ccncc1,–,"inconclusive: 14.1 µM [inhibitor, partial curve, poor fit]"
N#CCCN1CCN(c2cc(C(=O)O)c3cc(NC(=O)C4CCCC4)ccc3n2)CC1,–,"inconclusive: 31.6 µM [inhibitor, single point]"
O=C(NCc1ccc(F)c(Cl)c1)c1cc2n(n1)CC(c1ccc(Cl)cc1)OC2 (stereo not drawn),–,"inconclusive: 31.6 µM [inhibitor, partial curve, poor fit]"
CO[C@H]1[C@H](NC(=O)c2cn3ccsc3n2)c2ccccc2C12CCNCC2,–,"inconclusive: 14.1 µM [inhibitor, partial curve, poor fit]"
COc1ccc(C(NC(=O)NCc2ccccc2)c2ccc(OC)cc2)cc1,inactive: 2.88%,–
COc1ccc(Cn2ccc3nc(C)c(C(=O)NCc4ccc(SC)cc4)cc3c2=O)cc1,–,"inconclusive: 31.6 µM [inhibitor, partial curve, poor fit]"
Cc1cn2nc(C(=O)NCc3cc(F)cc(F)c3)cc2c(=O)[nH]1,inactive: -21.4%,–
CCC1=C(C(=O)OC)C(c2ccccc2OC)N2C(CC(=O)NCc3ccco3)=CSC2=N1 (stereo not drawn),–,"inconclusive: 28.2 µM [inhibitor, partial curve, poor fit]"
CCOCCCNC(=O)CCc1cc2cc(C)ccc2[nH]c1=O,–,"inconclusive: 25.1 µM [inhibitor, single point]"
